{
  "source": "the supplement of paper PMC12645437",
  "about": "“Orthogonal IMiD-Degron Pairs Induce Selective Protein Degradation in Cells” (ACS Chemical Biology, 2025)",
  "note": "Some of the results follow.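 Further: jurkat cells carrying a lentiviral library of mutant zinc finger degrons fused to EGFP plus mCherry, mCherry+ cells FACS sorted, degron abundance counted by next-generation sequencing.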",
  "data": [
    {"molecular_target": "no compound (DMSO)", "test": "log2 fold change of degron read counts, EGFP-low vs EGFP+ sorted cells; higher = lower degron-EGFP level without compound (poor expression or instability)", "details": "compound: DMSO control; 18 h", "values": [
      {"sequence": "FHCDQCGAMFTQKGNLLRHIKL", "log2 fold change of degron read counts": -1.46},
      {"sequence": "FLCPICGHMFTQKGNLLRHIKL", "log2 fold change of degron read counts": 0.351},
      {"sequence": "FWCEICGRNFTQKGNLLRHIKL", "log2 fold change of degron read counts": -0.181},
      {"sequence": "FYCEICGAFFTQKGNLLRHIKL", "log2 fold change of degron read counts": 0.556},
      {"sequence": "FECDQCGAIFTQKGNLLRHIKL", "log2 fold change of degron read counts": -1.76},
      {"sequence": "FTCDQCGALFTQKGNLLRHIKL", "log2 fold change of degron read counts": -0.986},
      {"sequence": "FCCPICGAGFTQKGNLLRHIKL", "log2 fold change of degron read counts": -0.544},
      {"sequence": "FGCEICGAKFTQKGNLLRHIKL", "log2 fold change of degron read counts": -1.31},
      {"sequence": "FDCEICGRRFTQKGNLLRHIKL", "log2 fold change of degron read counts": -1.53},
      {"sequence": "FICNVCGATFTQKGNLLRHIKL", "log2 fold change of degron read counts": -0.57},
      {"sequence": "FKCPICGHVFTQKGNLLRHIKL", "log2 fold change of degron read counts": -0.512},
      {"sequence": "FMCNQCGRTFTQKGNLLRHIKL", "log2 fold change of degron read counts": -0.48},
      {"sequence": "FGCDICGATFTQKGNLLRHIKL", "log2 fold change of degron read counts": -1.93},
      {"sequence": "FRCEICGANFTQKGNLLRHIKL", "log2 fold change of degron read counts": -1.17},
      {"sequence": "FTCEQCGAGFTQKGNLLRHIKL", "log2 fold change of degron read counts": -1.86},
      {"sequence": "FDCDVCGAGFTQKGNLLRHIKL", "log2 fold change of degron read counts": -1.29},
      {"sequence": "FSCPICGRKFTQKGNLLRHIKL", "log2 fold change of degron read counts": -1.6},
      {"sequence": "FMCPICGRAFTQKGNLLRHIKL", "log2 fold change of degron read counts": 0.221},
      {"sequence": "FLCEICGRDFTQKGNLLRHIKL", "log2 fold change of degron read counts": -1.59},
      {"sequence": "FECPVCGAFFTQKGNLLRHIKL", "log2 fold change of degron read counts": -1.15},
      {"sequence": "LWCNQCGFSCTQKGNLLRHIKL", "log2 fold change of degron read counts": 1.66},
      {"sequence": "FKCNICGAPFTQKGNLLRHIKL", "log2 fold change of degron read counts": -0.474},
      {"sequence": "FFCNQCGHDFTQKGNLLRHIKL", "log2 fold change of degron read counts": -0.869},
      {"sequence": "FKCPICGHTFTQKGNLLRHIKL", "log2 fold change of degron read counts": -1.17},
      {"sequence": "FWCPICGRMFTQKGNLLRHIKL", "log2 fold change of degron read counts": 0.675},
      {"sequence": "FFCEICGHEFTQKGNLLRHIKL", "log2 fold change of degron read counts": -2},
      {"sequence": "FSCPICGAAFTQKGNLLRHIKL", "log2 fold change of degron read counts": -0.0155},
      {"sequence": "FNCDQCGAIFTQKGNLLRHIKL", "log2 fold change of degron read counts": -1.19},
      {"sequence": "LSCPICGFMCTQKGNLLRHIKL", "log2 fold change of degron read counts": 0.772},
      {"sequence": "FLCNQCGRLFTQKGNLLRHIKL", "log2 fold change of degron read counts": 0.343},
      {"sequence": "FQCNQCGHWFTQKGNLLRHIKL", "log2 fold change of degron read counts": -0.282},
      {"sequence": "FGCPVCGAMFTQKGNLLRHIKL", "log2 fold change of degron read counts": -0.133},
      {"sequence": "FNCNVCGAKFTQKGNLLRHIKL", "log2 fold change of degron read counts": -0.613},
      {"sequence": "FHCNQCGRKFTQKGNLLRHIKL", "log2 fold change of degron read counts": -1.06},
      {"sequence": "FNCDQCGAQFTQKGNLLRHIKL", "log2 fold change of degron read counts": -1.55},
      {"sequence": "FTCEICGRVFTQKGNLLRHIKL", "log2 fold change of degron read counts": -0.463},
      {"sequence": "LMCPICGFPCTQKGNLLRHIKL", "log2 fold change of degron read counts": 1.68},
      {"sequence": "FECNQCGRRFTQKGNLLRHIKL", "log2 fold change of degron read counts": -1.94},
      {"sequence": "FCCPVCGARFTQKGNLLRHIKL", "log2 fold change of degron read counts": -0.017},
      {"sequence": "FDCEICGRSFTQKGNLLRHIKL", "log2 fold change of degron read counts": -2.25},
      {"sequence": "FFCNVCGAKFTQKGNLLRHIKL", "log2 fold change of degron read counts": -0.792},
      {"sequence": "FNCEICGALFTQKGNLLRHIKL", "log2 fold change of degron read counts": -1.29},
      {"sequence": "FSCNVCGAQFTQKGNLLRHIKL", "log2 fold change of degron read counts": -0.333},
      {"sequence": "FLCPICGAGFTQKGNLLRHIKL", "log2 fold change of degron read counts": 0.284},
      {"sequence": "FKCEQCGAYFTQKGNLLRHIKL", "log2 fold change of degron read counts": -2.35},
      {"sequence": "FECPVCGAGFTQKGNLLRHIKL", "log2 fold change of degron read counts": -0.774},
      {"sequence": "FWCEVCGAIFTQKGNLLRHIKL", "log2 fold change of degron read counts": 0.79},
      {"sequence": "FMCEICGAMFTQKGNLLRHIKL", "log2 fold change of degron read counts": -1.8},
      {"sequence": "FFCNVCGACFTQKGNLLRHIKL", "log2 fold change of degron read counts": 0.484},
      {"sequence": "FMCNVCGAMFTQKGNLLRHIKL", "log2 fold change of degron read counts": 0.432}
    ]}
  ]
}
